Measured values taken from the supplement of paper PMC8728848.
The other results are listed elsewhere or left out.

Tests used:
Test in all cases: glycan array binding signal (z-score within array); higher = stronger binding
Details in all cases: glycan notation: IUPAC condensed, linker removed
[1] = molecular target: Fuc(a1-3)[Gal(b1-4)]GlcNAc(b1-3)Gal(b1-4)[Fuc(a1-3)]GlcNAc
Method in brief: (§1)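 Arrays were curated from the Consortium for Functional Glycomics database, 3228 in total, and kept only where the protein sequence was available. Binding is expressed as a within-array Z-score. This score was averaged across arrays of the same protein sequence at different concentrations or buffers and across linkers, and negative values can be read as non-binding.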

[2] = molecular target: Fuc(a1-3)[Gal(b1-4)]GlcNAc(b1-3)Gal(b1-4)[Fuc(a1-3)]GlcNAc(b1-3)Gal(b1-4)[Fuc(a1-3)]GlcNAc
Method in brief: as §1

[3] = molecular target: Fuc(a1-3)[Gal(b1-4)]GlcNAc(b1-3)GalNAc
Method in brief: as §1

[4] = molecular target: Fuc(a1-3)[Gal(b1-4)]GlcNAc(b1-6)GalNAc
Method in brief: as §1

[5] = molecular target: Fuc(a1-3)[Gal(b1-4)]GlcNAc(b1-6)[Gal(b1-3)GlcNAc(b1-3)]Gal(b1-4)Glc
Method in brief: as §1

[6] = molecular target: Fuc(a1-3)[Gal(b1-4)]GlcNAc6S
Method in brief: as §1

[7] = molecular target: Fuc(a1-3)[Gal3S(b1-4)]Glc
Method in brief: as §1

[8] = molecular target: Fuc(a1-3)[Gal3S(b1-4)]GlcNAc
Method in brief: as §1

[9] = molecular target: Fuc(a1-3)[Gal3S(b1-4)]GlcNAc6S
Method in brief: as §1

[10] = molecular target: Fuc(a1-3)[GalNAc(b1-4)]GlcNAc
Method in brief: as §1

[11] = molecular target: Fuc(a1-3)[GalNAc(b1-4)]GlcNAc6S
Method in brief: as §1

[12] = molecular target: Fuc(a1-4)GlcNAc
Method in brief: as §1

[13] = molecular target: Fuc(b1-3)GlcNAc
Method in brief: as §1

[14] = molecular target: Gal(a1-2)Gal
Method in brief: as §1

[15] = molecular target: Gal(a1-3)Gal
Method in brief: as §1

[16] = molecular target: Gal(a1-3)Gal(b1-3)GlcNAc
Method in brief: as §1

[17] = molecular target: Gal(a1-3)Gal(b1-3)GlcNAc(b1-2)Man
Method in brief: as §1

[18] = molecular target: Gal(a1-3)Gal(b1-3)GlcNAc(b1-2)Man(a1-3)[Gal(a1-3)Gal(b1-3)GlcNAc(b1-2)Man(a1-6)]Man(b1-4)GlcNAc(b1-4)GlcNAc
Method in brief: as §1

[19] = molecular target: Gal(a1-3)Gal(b1-3)GlcNAc(b1-3)GalNAc
Method in brief: as §1

[20] = molecular target: Gal(a1-3)Gal(b1-3)GlcNAc(b1-6)GalNAc
Method in brief: as §1

[21] = molecular target: Gal(a1-3)Gal(b1-3)[Fuc(a1-4)]GlcNAc(b1-2)Man(a1-3)[Gal(a1-3)Gal(b1-3)[Fuc(a1-4)]GlcNAc(b1-2)Man(a1-6)]Man(b1-4)GlcNAc(b1-4)GlcNAc
Method in brief: as §1

[22] = molecular target: Gal(a1-3)Gal(b1-4)Glc
Method in brief: as §1

[23] = molecular target: Gal(a1-3)Gal(b1-4)GlcNAc
Method in brief: as §1

[24] = molecular target: Gal(a1-3)Gal(b1-4)GlcNAc(b1-2)Man
Method in brief: as §1

[25] = molecular target: Gal(a1-3)Gal(b1-4)GlcNAc(b1-2)Man(a1-3)[Gal(a1-3)Gal(b1-4)GlcNAc(b1-2)Man(a1-6)]Man(b1-4)GlcNAc(b1-4)GlcNAc
Method in brief: as §1

[26] = molecular target: Gal(a1-3)Gal(b1-4)GlcNAc(b1-3)GalNAc
Method in brief: as §1

[27] = molecular target: Gal(a1-3)Gal(b1-4)GlcNAc(b1-6)GalNAc
Method in brief: as §1

[28] = molecular target: Gal(a1-3)Gal(b1-4)[Fuc(a1-3)]GlcNAc
Method in brief: as §1

[29] = molecular target: Gal(a1-3)Gal(b1-4)[Fuc(a1-3)]GlcNAc(b1-2)Man(a1-3)[Gal(a1-3)Gal(b1-4)[Fuc(a1-3)]GlcNAc(b1-2)Man(a1-6)]Man(b1-4)GlcNAc(b1-4)GlcNAc
Method in brief: as §1

[30] = molecular target: Gal(a1-3)GalNAc
Method in brief: as §1

[31] = molecular target: Gal(a1-3)[Gal(a1-4)]Gal(b1-4)GlcNAc
Method in brief: as §1

[32] = molecular target: Gal(a1-4)Gal(b1-3)GlcNAc(b1-2)Man(a1-3)[Gal(a1-4)Gal(b1-3)GlcNAc(b1-2)Man(a1-6)]Man(b1-4)GlcNAc(b1-4)GlcNAc
Method in brief: as §1

[33] = molecular target: Gal(a1-4)Gal(b1-4)Glc
Method in brief: as §1

[34] = molecular target: Gal(a1-4)Gal(b1-4)GlcNAc
Method in brief: as §1

[35] = molecular target: Gal(a1-4)Gal(b1-4)GlcNAc(b1-2)Man(a1-3)[Gal(a1-4)Gal(b1-4)GlcNAc(b1-2)Man(a1-6)]Man(b1-4)GlcNAc(b1-4)GlcNAc
Method in brief: as §1

[36] = molecular target: Gal(a1-4)Gal(b1-4)GlcNAc(b1-3)Gal(b1-4)Glc
Method in brief: as §1

[37] = molecular target: Gal(a1-4)GlcNAc
Method in brief: as §1

[38] = molecular target: Gal(a1-6)Glc
Method in brief: as §1

B1: Cohesin-marm-DC-ASGPR-CRD (protein)
chain: LDITSHHHHHHDDLDAVRIKVDTVNAKPGDTVRIPVRFSGIPSKGIANCDFVYSYDPNVLEIIEIEPGDIIVDPNPDKSFDTAVYPDRKIIVFLFAEDSGTGAYAITKDGVFATIVAKVKEGAPNGLSVIKFVEVGGFANNDLVEQKTQFFDGGVNVGDTTEPATPTTPVTTPTTTDDLDAASCPINWVEHQGSCYWFSRSGKTWPEAERYCQLENTHLVVINSREEQNFVQAHLGSAYTWMGLSDPEGVWKWVDGTDYSSGFQNWKPGQPDDWQGHGLGGGEDCAHFHPDGRWNDDVCQRSYHWVCEAGLTQASQDSH
[1]
  glycan array binding signal (z-score): -0.413
[2]
  glycan array binding signal (z-score): -0.4
[3]
  glycan array binding signal (z-score): -0.459
[4]
  glycan array binding signal (z-score): 2.63
[5]
  glycan array binding signal (z-score): -0.446
[6]
  glycan array binding signal (z-score): -0.448
[7]
  glycan array binding signal (z-score): -0.423
[8]
  glycan array binding signal (z-score): -0.379
[9]
  glycan array binding signal (z-score): -0.454
[10]
  glycan array binding signal (z-score): 2.57
[11]
  glycan array binding signal (z-score): 2.91
[12]
  glycan array binding signal (z-score): -0.349
[13]
  glycan array binding signal (z-score): -0.405
[14]
  glycan array binding signal (z-score): -0.364
[15]
  glycan array binding signal (z-score): -0.418
[16]
  glycan array binding signal (z-score): 0.082
[17]
  glycan array binding signal (z-score): -0.433
[18]
  glycan array binding signal (z-score): -0.346
[19]
  glycan array binding signal (z-score): -0.415
[20]
  glycan array binding signal (z-score): 2.92
[21]
  glycan array binding signal (z-score): -0.156
[22]
  glycan array binding signal (z-score): -0.398
[23]
  glycan array binding signal (z-score): -0.421
[24]
  glycan array binding signal (z-score): -0.444
[25]
  glycan array binding signal (z-score): -0.185
[26]
  glycan array binding signal (z-score): -0.443
[27]
  glycan array binding signal (z-score): 2.82
[28]
  glycan array binding signal (z-score): -0.378
[29]
  glycan array binding signal (z-score): -0.38
[30]
  glycan array binding signal (z-score): 0.125
[31]
  glycan array binding signal (z-score): -0.411
[32]
  glycan array binding signal (z-score): -0.341
[33]
  glycan array binding signal (z-score): -0.372
[34]
  glycan array binding signal (z-score): -0.435
[35]
  glycan array binding signal (z-score): -0.425
[36]
  glycan array binding signal (z-score): -0.448
[37]
  glycan array binding signal (z-score): -0.402
[38]
  glycan array binding signal (z-score): -0.426
